Measured values: ChEMBL document CHEMBL4888484, “Replenishing the malaria drug discovery pipeline: Screening and hit evaluation of the MMV Hit Generation Library 1 (HGL1) against asexual blood stage Plasmodium falciparum ,using a nano luciferase reporter read-out” (2022)
The campaign covered roughly 150,000 compounds. About 540 (0.36%) showed an effect of 50% or more. Some of the results follow.

Tested on: Plasmodium falciparum
Experiment: Primary screen in NF54 nanoGlo assay, in single point, at 2uM, 72h; a lower Z score goes with more inhibition
Format: functional, Erythrocyte
Details: timepoint 72 hour

Point of comparison: Cc1nnnn1C[C@H](O)COCc1ccco1, “% Inhibition” value -3%. Against it:
- CN1C[C@H]2CC[C@@H](C1)N(Cc1cccc(OCCCn3ccnc3)c1)C2 — lower, -15%
- COCC[C@H]1CCCCN1Cc1cc(C(C)C)on1 — lower, -7%
- Cc1ccc([C@@H](O)CNC(=O)NCCOc2ccccc2)o1 — lower, -6%
- O=C(Nc1ccc2c(c1)CNCC2)C1CC1c1ccc(F)c(F)c1 (stereo unspecified) — higher, 37%
- CCCN(C)C(=O)Nc1ccc(C)cc1Br — lower, -4%
- COCc1nc(C)nc(N2CCN(C(=O)c3cccs3)CC2)c1Cc1ccc(OC)cc1 — higher, 3%
- CC1CN(C(=O)Cn2cc(NC(C)c3ccncc3)cn2)CC(C)O1 (stereo unspecified) — lower, -11%
- COCCN1CCC(CN(C[C@H]2CCCO2)C(=O)c2ccncc2)CC1 — higher, 5%
- COC[C@@H]1CC(F)(F)CN1C1CN(C(=O)c2ccc3c(c2)OCO3)C1 — higher, 2%
- COCc1nc(C)cc(NCCc2cn3c(C)cccc3n2)n1 — lower, -7%
- COc1cccc(CNC(=O)Cn2cnc3c(-c4cccc(C)c4)nsc3c2=O)c1OC — lower, -6%
- CC12c3ccccc3C(c3ccccc31)C1C(=O)N(c3ccccn3)C(=O)[C@H]12 (stereo partly specified) — lower, -14%
- Cc1nc2ccccc2n1Cc1ccc(C(=O)NCCc2ccccc2)o1 — lower, -15%
- O=S(=O)(NCc1ccc(C2OCCO2)cc1)N1CCc2ccccc2C1 — higher, -1%
- Cc1ccc2c(c1)c(-c1cc(F)cc3c1O[C@@H](CN)C3)nn2C — higher, 1%
- Cn1ccnc1CCN1CCC([C@@H](O)CCc2ccccc2)CC1 — higher, 6%
- CCN(CC)CCN(C)C(=O)c1cnn(-c2ncc3c(n2)-c2ccc(OC)cc2CC3)c1C — lower, -12%
- Cc1cc(CNc2cccc(C3CC(=O)NC(=O)C3)c2)ccc1F — higher, 4%
- CCc1nnc(-c2nnc(N3CCOCC3)c3ccccc23)o1 — the same, -3%
- O=C(CN1CCN(c2ccc(F)c(F)c2)C1=O)N1CCN(c2ncccn2)CC1 — the same, -3%
- CC(C)NC(=O)CN1CCN(c2cc(C(=O)O)c3cc(NS(=O)(=O)c4ccc(F)cc4)ccc3n2)CC1 — lower, -14%
- CC(C)N(C)C(=O)C1CCN(C(=O)[C@@H]2CCc3cc(F)ccc32)CC1 — lower, -14%
- CCc1csc(CCNc2cc3nncn3c(N)n2)n1 — higher, 15%
- OC[C@@]1(CCOc2ccccc2)CCCN(c2ncnc3[nH]ccc23)C1 — higher, 0%
- CO[C@H]1CCCN(S(=O)(=O)c2cc(-c3cc(C(F)(F)F)[nH]n3)oc2C)C1 — higher, 0%
- O=C(NC[C@H]1CCCO1)c1c[nH]c2cc(Br)c(Br)cc12 — higher, 15%
- O=C(CN1C(=O)CCC1=O)Nc1cc(S(=O)(=O)N2CCCCC2)ccc1Cl — higher, 13%
- Cc1ccc(S(=O)(=O)NCc2nc(-c3ccccc3)oc2C)cc1C — lower, -8%
- COC(=O)CNc1nc(Oc2ccccc2)nc(Oc2ccccc2)n1 — lower, -6%
- Cc1ccc(-c2nc(NC(=O)COc3ccccc3F)sc2NC(=O)c2ccco2)cc1 — lower, -13%
- Cc1ccc(NC(=O)N(CCN2CCCC2)CC(=O)N2CCc3sccc3[C@@H]2COc2ccc(C(C)C)cc2)cc1 — higher, 3%
- Cn1c(=O)c2c(ncn2[C@H]2CCN(C3CC3)C2=O)n(C)c1=O — lower, -4%
- COCc1cc(N2CC[C@](O)(C3CC3)[C@@H](C)C2)ncn1 — lower, -9%
- CNC(=O)CCN1CCOCC(F)(F)C1 — higher, -2%
- O=C(CN1N=C(c2ccccc2)c2ccccc2S1(=O)=O)Nc1ccc(Cl)cc1 — lower, -11%
- Cc1cc2[nH]c(CN3CCCC[C@@H]3CCN3CCCC3=O)cc(=O)n2n1 — lower, -6%
- Nc1c2c(-c3ccccc3F)nc(NCCc3cccs3)nc2nn1-c1ccc(Cl)c(Cl)c1 — lower, -5%
- O=S(=O)(c1ccccc1)N1CC[C@@H]2COCCN(Cc3cccnc3)[C@@H]2C1 — higher, 3%
- CC(NS(=O)(=O)N1CCCCC1C)c1cccs1 (stereo unspecified) — lower, -14%
- C(=Cc1coc(-c2ccccc2)n1)c1ccncn1 — lower, -12%
- COC(=O)N1CC2C=CC1C(c1noc(C)n1)C2 (stereo unspecified) — higher, 1%
- Cc1cc2c(cc1S(=O)(=O)N1CCC[C@H](C(=O)NCCCc3ccccc3)C1)OCC(=O)N2 — lower, -14%
- CCC[C@H](C)NC(=O)NCc1cc(CC)no1 — lower, -12%
- Cn1c(N2CCC[C@H](C(=O)NCCN3CCN(c4ccccc4F)CC3)C2)cc(=O)n(C)c1=O — lower, -5%
- O=S(=O)(CC1CCOC1)NC1CC1C1CCCCC1 (stereo unspecified) — lower, -4%
- CCN(c1ccc(C(=O)N(C)C2(C#N)CCC2)cc1)C(C)C — higher, 41%
- Cc1noc(CN(C)C(=O)c2cccc(-c3ccc(N(C)C)cc3)c2)n1 — higher, 0%
- CCC[C@@]1(C(=O)O)CCCN1C(=O)CCc1c(C)noc1C — lower, -11%
- Cc1cc(C(=O)N2CCCC2)c(C)s1 — higher, -1%
- C[C@H]1COCCN1CC(=O)Nc1cc(C(C)(C)C)no1 — higher, 21%
- Cc1cnc(CNC(=O)c2cnc(N3CCOCC3)nc2)cn1 — lower, -8%
- C[C@@H]1Oc2ccc(NC(=O)c3ccc(Cl)c(N4CCCC4=O)c3)cc2NC1=O — lower, -4%

Point of comparison: O=C(CN1C(=O)CCC1=O)Nc1cc(S(=O)(=O)N2CCCCC2)ccc1Cl, Z score -1.7. Against it:
- CN1C[C@H]2CC[C@@H](C1)N(Cc1cccc(OCCCn3ccnc3)c1)C2 — higher, 1.45
- COCC[C@H]1CCCCN1Cc1cc(C(C)C)on1 — higher, 1.43
- Cc1ccc([C@@H](O)CNC(=O)NCCOc2ccccc2)o1 — higher, 0.67
- O=C(Nc1ccc2c(c1)CNCC2)C1CC1c1ccc(F)c(F)c1 (stereo unspecified) — higher, -1.36
- CCCN(C)C(=O)Nc1ccc(C)cc1Br — higher, 0.56
- COCc1nc(C)nc(N2CCN(C(=O)c3cccs3)CC2)c1Cc1ccc(OC)cc1 — higher, -0.29
- CC1CN(C(=O)Cn2cc(NC(C)c3ccncc3)cn2)CC(C)O1 (stereo unspecified) — higher, 0.96
- COCCN1CCC(CN(C[C@H]2CCCO2)C(=O)c2ccncc2)CC1 — higher, -1.03
- COC[C@@H]1CC(F)(F)CN1C1CN(C(=O)c2ccc3c(c2)OCO3)C1 — higher, -0.28
- Cc1nnnn1C[C@H](O)COCc1ccco1 — higher, 0.32
- COCc1nc(C)cc(NCCc2cn3c(C)cccc3n2)n1 — higher, 0.93
- COc1cccc(CNC(=O)Cn2cnc3c(-c4cccc(C)c4)nsc3c2=O)c1OC — higher, 0.98
- CC12c3ccccc3C(c3ccccc31)C1C(=O)N(c3ccccn3)C(=O)[C@H]12 (stereo partly specified) — higher, 1.2
- Cc1nc2ccccc2n1Cc1ccc(C(=O)NCCc2ccccc2)o1 — higher, 2.8
- O=S(=O)(NCc1ccc(C2OCCO2)cc1)N1CCc2ccccc2C1 — higher, 0.14
- Cc1ccc2c(c1)c(-c1cc(F)cc3c1O[C@@H](CN)C3)nn2C — higher, -0.17
- Cn1ccnc1CCN1CCC([C@@H](O)CCc2ccccc2)CC1 — higher, -1.19
- CCN(CC)CCN(C)C(=O)c1cnn(-c2ncc3c(n2)-c2ccc(OC)cc2CC3)c1C — higher, 1.64
- Cc1cc(CNc2cccc(C3CC(=O)NC(=O)C3)c2)ccc1F — higher, -0.35
- CCc1nnc(-c2nnc(N3CCOCC3)c3ccccc23)o1 — higher, 0.29
- O=C(CN1CCN(c2ccc(F)c(F)c2)C1=O)N1CCN(c2ncccn2)CC1 — higher, 0.46
- CC(C)NC(=O)CN1CCN(c2cc(C(=O)O)c3cc(NS(=O)(=O)c4ccc(F)cc4)ccc3n2)CC1 — higher, 2.45
- CC(C)N(C)C(=O)C1CCN(C(=O)[C@@H]2CCc3cc(F)ccc32)CC1 — higher, 1.82
- CCc1csc(CCNc2cc3nncn3c(N)n2)n1 — lower, -1.95
- OC[C@@]1(CCOc2ccccc2)CCCN(c2ncnc3[nH]ccc23)C1 — higher, -0.02
- CO[C@H]1CCCN(S(=O)(=O)c2cc(-c3cc(C(F)(F)F)[nH]n3)oc2C)C1 — higher, -0.04
- O=C(NC[C@H]1CCCO1)c1c[nH]c2cc(Br)c(Br)cc12 — lower, -2.36
- Cc1ccc(S(=O)(=O)NCc2nc(-c3ccccc3)oc2C)cc1C — higher, 1.01
- COC(=O)CNc1nc(Oc2ccccc2)nc(Oc2ccccc2)n1 — higher, 1.19
- Cc1ccc(-c2nc(NC(=O)COc3ccccc3F)sc2NC(=O)c2ccco2)cc1 — higher, 1.57
- Cc1ccc(NC(=O)N(CCN2CCCC2)CC(=O)N2CCc3sccc3[C@@H]2COc2ccc(C(C)C)cc2)cc1 — higher, -0.35
- Cn1c(=O)c2c(ncn2[C@H]2CCN(C3CC3)C2=O)n(C)c1=O — higher, 0.8
- COCc1cc(N2CC[C@](O)(C3CC3)[C@@H](C)C2)ncn1 — higher, 1.46
- CNC(=O)CCN1CCOCC(F)(F)C1 — higher, 0.22
- O=C(CN1N=C(c2ccccc2)c2ccccc2S1(=O)=O)Nc1ccc(Cl)cc1 — higher, 1.04
- Cc1cc2[nH]c(CN3CCCC[C@@H]3CCN3CCCC3=O)cc(=O)n2n1 — higher, 0.71
- Nc1c2c(-c3ccccc3F)nc(NCCc3cccs3)nc2nn1-c1ccc(Cl)c(Cl)c1 — higher, 0.58
- O=S(=O)(c1ccccc1)N1CC[C@@H]2COCCN(Cc3cccnc3)[C@@H]2C1 — higher, -0.35
- CC(NS(=O)(=O)N1CCCCC1C)c1cccs1 (stereo unspecified) — higher, 2.2
- C(=Cc1coc(-c2ccccc2)n1)c1ccncn1 — higher, 1.41
- COC(=O)N1CC2C=CC1C(c1noc(C)n1)C2 (stereo unspecified) — higher, -0.09
- Cc1cc2c(cc1S(=O)(=O)N1CCC[C@H](C(=O)NCCCc3ccccc3)C1)OCC(=O)N2 — higher, 1.97
- CCC[C@H](C)NC(=O)NCc1cc(CC)no1 — higher, 1.29
- Cn1c(N2CCC[C@H](C(=O)NCCN3CCN(c4ccccc4F)CC3)C2)cc(=O)n(C)c1=O — higher, 0.8
- O=S(=O)(CC1CCOC1)NC1CC1C1CCCCC1 (stereo unspecified) — higher, 0.71
- CCN(c1ccc(C(=O)N(C)C2(C#N)CCC2)cc1)C(C)C — lower, -5.48
- Cc1noc(CN(C)C(=O)c2cccc(-c3ccc(N(C)C)cc3)c2)n1 — higher, 0
- CCC[C@@]1(C(=O)O)CCCN1C(=O)CCc1c(C)noc1C — higher, 1.36
- Cc1cc(C(=O)N2CCCC2)c(C)s1 — higher, 0.25
- C[C@H]1COCCN1CC(=O)Nc1cc(C(C)(C)C)no1 — lower, -2.82
- Cc1cnc(CNC(=O)c2cnc(N3CCOCC3)nc2)cn1 — higher, 1.26
- C[C@@H]1Oc2ccc(NC(=O)c3ccc(Cl)c(N4CCCC4=O)c3)cc2NC1=O — higher, 0.55
